# Assay results published in the supplement of paper PMC3334620.
# The full ranking holds about 33,000 sequences; the median of “E-score (-0.5 to 0.5)” is about -0.011, and the highest 2% start at about 0.28. This is one part of the list.
# Biological target: T1, Gcr1 (UniProt P07261)
# T1 sequence: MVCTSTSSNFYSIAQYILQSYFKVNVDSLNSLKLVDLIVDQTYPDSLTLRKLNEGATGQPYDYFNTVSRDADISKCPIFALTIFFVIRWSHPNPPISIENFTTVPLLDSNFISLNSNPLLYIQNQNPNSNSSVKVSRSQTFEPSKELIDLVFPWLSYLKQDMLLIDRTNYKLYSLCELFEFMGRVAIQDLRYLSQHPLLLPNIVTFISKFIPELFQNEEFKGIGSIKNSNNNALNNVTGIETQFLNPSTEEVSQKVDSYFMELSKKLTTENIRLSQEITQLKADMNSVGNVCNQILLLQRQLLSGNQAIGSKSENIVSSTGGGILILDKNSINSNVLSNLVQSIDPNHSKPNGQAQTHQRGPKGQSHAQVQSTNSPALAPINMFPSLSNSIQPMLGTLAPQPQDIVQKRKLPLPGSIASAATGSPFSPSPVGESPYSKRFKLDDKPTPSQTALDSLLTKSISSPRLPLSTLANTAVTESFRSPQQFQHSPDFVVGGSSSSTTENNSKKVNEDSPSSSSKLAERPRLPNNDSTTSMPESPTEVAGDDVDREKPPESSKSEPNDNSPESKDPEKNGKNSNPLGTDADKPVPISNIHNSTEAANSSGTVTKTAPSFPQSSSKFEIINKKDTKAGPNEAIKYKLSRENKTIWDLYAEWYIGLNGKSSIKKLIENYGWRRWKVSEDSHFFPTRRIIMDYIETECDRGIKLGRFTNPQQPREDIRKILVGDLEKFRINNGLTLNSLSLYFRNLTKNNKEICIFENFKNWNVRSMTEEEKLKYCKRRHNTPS
# Assay: PBM E-score (8-mer binding enrichment) (E-score (-0.5 to 0.5)); higher = stronger / more preferred TF binding; most listed sequences are background and not binding sites
# Details: protein concentration: 100 nM; construct: GST-full length
# In short: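 Universal all-10-mer Agilent arrays, double-stranded by primer extension on fresh or once-stripped slides, were probed with about 100-200 nM GST-tagged yeast transcription factors made by PURExpress. Fluorescent anti-GST detected bound protein, and masliner normalised the scans. E-scores from the Universal PBM Analysis Suite were given to each ungapped eight-base word pooled with its reverse complement.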
row,Sequence,PBM E-score
1,CTACCGAA,-0.0445
2,CTCCAAGA,0.0262
3,CTGGAGTC,0.172
4,TACTGTCA,-0.0784
5,AGGATTCA,-0.164
6,CAACAATA,0.0483
7,ACCCCCCT,-0.356
8,CTTTCCAC,-0.0221
9,ACGTATAC,0.102
10,AATTGCGC,-0.0135
11,CATGGTAA,0.00173
12,ACCCTCGT,0.00187
13,ACTTCCCG,0.0552
14,AGTTAGGA,0.112
15,GGCTAGTA,-0.0456
16,CACTTCCG,0.0282
17,CGCGGGAC,-0.102
18,CATGGCAC,-0.0233
19,CGTGGGCA,-0.108
20,CGTATCGA,-0.103
21,AACATTGA,0.0845
22,CCACTCGA,0.159
23,CGTGAGAA,-0.16
24,ACGCAAGT,-0.0202

row,Sequence,PBM E-score
1,AGTTAGTC,-0.0577
2,GTGCGACA,-0.158
3,AGGAATGA,-0.0586
4,TCAAGTCA,-0.0403
5,AAAGGCGC,0.182
6,CTCGCACC,-0.0379
7,TCGTGAGA,-0.0171
8,AACCAGGC,-0.0479
9,AGGCAACC,0.0186
10,ATTAAAAA,0.332
11,ACGTTTTC,0.00046
12,GTCTGAAC,-0.172
13,AAGAATTC,0.272
14,AAGGCGAA,-0.0278
15,GTCCGGCA,0.037
16,CAGATTGG,-0.0172
17,GTCACGGA,0.0137
18,ACCGGCAT,0.0959
19,CCAGTGAC,0.0638
20,ATATGAAC,-0.0208
21,CAACGGAA,0.0332
22,GTACGGCA,-0.108
23,GCGGACCC,0.123
24,ACTAGACG,0.0745

row,Sequence,PBM E-score
1,CACAAATG,-0.0532
2,GGTCTGTA,0.0666
3,CAGTCCCC,-0.0937
4,ATGGGGGC,-0.0269
5,CACCAAGC,0.158
6,AGAGAGCG,-0.163
7,ATATGGGG,0.0505
8,AAGAAGTA,0.0677
9,AAGATACA,0.0175
10,TGGACCAA,-0.129
11,ATAGACAC,-0.199
12,CCAACCGG,-0.0067
13,AGTTCCTC,0.114
14,GTTGAATA,-0.017
15,AGTGATGC,0.04
16,CATGCAGG,-0.0152
17,CTTCGCCC,-0.235
18,GAACAATC,-0.0848
19,AAATCAGC,0.0131
20,CATCACAC,-0.0142
21,AGATTGCT,-0.0875
22,CACCATCC,0.0621
23,ACTAATTA,0.0585
24,GCCGATCA,-0.0166

row,Sequence,PBM E-score
1,GATTCGAA,0.097
2,ACCGGGCT,0.113
3,AGATACAC,-0.0218
4,CGTCGTCC,0.0126
5,CCCGGCGG,0.13
6,GCTAACAC,-0.191
7,ACATGGGG,0.118
8,GGCGAACA,-0.0975
9,CAACGCAA,-0.176
10,ATTCGGCG,0.103
11,AGGCGTAT,0.0582
12,CGTACCTC,-0.124
13,ATATCCAC,-0.194
14,AAATGAGC,-0.00173
15,GTTAGCAA,-0.0123
16,CACCGACG,-0.145
17,AGGCGAGC,-0.0288
18,GGGTATGA,-0.0479
19,CCAAAAGA,0.0404
20,AATGGCTA,0.0611
21,AGCCTCCT,0.197
22,ACCCTAGG,-0.017
